Data published in the antibiotic and cytotoxicity screens of Wong et al. (2023).
Some of the results follow.

Assays:
HSkMC = human skeletal muscle cells; assay: cytotoxicity call (relative viability < 0.9); conditions: 10 µM
HepG2 = assay: cytotoxicity call (relative viability < 0.9); conditions: 10 µM
S. aureus RN4220 = assay: growth inhibition call (relative growth <= 0.2); conditions: 50 µM

Compound	cytotoxicity call (HSkMC)	cytotoxicity call (HepG2)	growth inhibition call (S. aureus RN4220)
CC(C)(C)C(=O)N[C@@H]1CC(=O)N(C2CC2)C1	inactive	inactive	inactive
C[C@@H]1CCCCO[C@H](CN(C)C(=O)CCC(F)(F)F)[C@@H](C)CN([C@H](C)CO)C(=O)c2cc(NC(=O)CCC(F)(F)F)ccc2O1	inactive	inactive	inactive
CC(=O)N[C@@H](C=O)[C@@H](O)[C@H](O)[C@H](O)CO	inactive	inactive	inactive
O=C(c1ccc(S(=O)(=O)N2CCOCC2)o1)N1CCC(O)CC1	inactive	inactive	inactive
C[C@H](CO)N1C[C@H](C)[C@@H](CN(C)S(=O)(=O)c2ccccc2F)Oc2ncc(Br)cc2C1=O	inactive	inactive	inactive
C[C@@H]1CN([C@@H](C)CO)C(=O)Cc2cc(NC(=O)C3CC3)ccc2O[C@@H]1CN(C)C(=O)NC1CCCCC1	inactive	inactive	inactive
COc1ccc(NC(=O)N(C)C[C@H]2OCCCC[C@@H](C)Oc3ccc(NS(=O)(=O)c4cccs4)cc3C(=O)N([C@@H](C)CO)C[C@@H]2C)cc1	inactive	inactive	inactive
COc1ccc(C#Cc2cnc3c(c2)C(=O)N([C@H](C)CO)C[C@H](C)[C@H](CN(C)C(=O)Nc2cccc4ccccc24)O3)cc1OC	inactive	inactive	inactive
CNC[C@H]1Oc2c(NS(=O)(=O)c3cn(C)cn3)cccc2C(=O)N([C@H](C)CO)C[C@H]1C	inactive	inactive	inactive
C1CCC(C(C[C@H]2CCCCN2)C2CCCCC2)CC1	inactive	active	active
C[C@@H]1CN([C@H](C)CO)C(=O)c2cccc(NC(=O)NC3CCCCC3)c2O[C@@H]1CN(C)C(=O)Nc1cccc2ccccc12	inactive	inactive	inactive
C[C@H](CO)N1C[C@H](C)[C@@H](CN(C)C(=O)Nc2ccc(C(F)(F)F)cc2)Oc2ncc(C#C[C@@H](C)O)cc2C1=O	inactive	inactive	inactive
COCCN1CCO[C@H]2CN(S(=O)(=O)c3cn(C)cn3)CC[C@@H]2C1	inactive	inactive	inactive
COc1ccc(-c2coc3cc(O)cc(OC)c3c2=O)cc1	inactive	inactive	inactive
C[C@@H]1CN([C@@H](C)CO)C(=O)CCCn2cc(nn2)CO[C@@H]1CN(C)Cc1ccc2c(c1)OCCN2C	inactive	inactive	inactive
CN(CC=Cc1ccccc1)Cc1cccc2ccccc12.Cl	inactive	inactive	inactive
C=C(C)CCn1cccc1C(C)=O	inactive	inactive	inactive
C[C@H]1CN([C@@H](C)CO)C(=O)c2c(c3ccccc3n2C)-c2ccccc2CO[C@@H]1CN(C)Cc1cccc(C(F)(F)F)c1	active	inactive	inactive
CC(C)NC(=O)N(C)C[C@@H]1Oc2ccc(NC(=O)Cn3cnnn3)cc2C(=O)N([C@@H](C)CO)C[C@@H]1C	inactive	inactive	inactive
CC(C)N1C[C@H](C)[C@@H](CN(C)Cc2ccc(Cl)c(Cl)c2)Oc2c(cccc2-c2cn(-c3ccncc3)nn2)C1=O	inactive	inactive	inactive
CCOC(=O)C1=C(CN2CCOCC2)NC(c2nccs2)=N[C@@H]1c1ccc(F)cc1Br	inactive	inactive	inactive
COc1ccc(NC(=O)Nc2ccc3c(c2)C(=O)N([C@H](C)CO)C[C@H](C)[C@H](CN(C)S(=O)(=O)c2cn(C)cn2)O3)cc1	inactive	inactive	inactive
CN(C)N(C)C(=O)[C@@]1(Cc2ccccc2)CCCN(C(=O)[C@@H](Cc2c[nH]c3ccccc23)NC(=O)C(C)(C)N)C1	inactive	inactive	inactive
COc1ccccc1C#Cc1ccc2c(c1)O[C@H](CN(C)C(C)=O)[C@H](C)CN([C@@H](C)CO)S2(=O)=O	inactive	inactive	inactive
COc1ccc(S(=O)(=O)N2C[C@H](O)COC[C@H]3O[C@@H](CC(=O)N[C@H]4CCN(Cc5ccccc5)C4)CC[C@@H]32)cc1	inactive	inactive	inactive
C[C@@H]1CCCCO[C@H](CN(C)C(=O)Nc2ccccc2)[C@@H](C)CN([C@@H](C)CO)C(=O)c2cc(NS(=O)(=O)c3cccs3)ccc2O1	inactive	active	inactive
C[C@H](CO)N1C[C@H](C)[C@H](CN(C)CC2CCCCC2)Oc2ccc(NC(=O)CCCCCC(=O)Nc3ccccc3N)cc2C1=O	inactive	active	inactive
COc1ccc(S(=O)(=O)N(C)C[C@H]2OCCCC[C@H](C)Oc3ccc(NC(=O)Nc4ccc5c(c4)OCO5)cc3C(=O)N([C@H](C)CO)C[C@H]2C)cc1	inactive	inactive	inactive
